T1: human CTLA-4 expressed on cell surface (hCTLA4-overexpressing CHO-K1 cells) (human, UniProt P16410 36-223)
T1 construct: The construct expressed in the cells is not described further; also called huCTLA-4+ CHO-K cells; CTLA-4+ CHO-K1 cells
T1 sequence: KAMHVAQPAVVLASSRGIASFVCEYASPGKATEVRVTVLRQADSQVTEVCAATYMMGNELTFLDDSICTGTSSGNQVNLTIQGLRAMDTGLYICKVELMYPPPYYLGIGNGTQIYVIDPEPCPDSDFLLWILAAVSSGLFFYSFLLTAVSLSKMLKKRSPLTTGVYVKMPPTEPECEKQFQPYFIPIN

T2: human LAG3 on CHO-K1 cells (huLag-3+ CHO-K1 cells) (human, UniProt P18627 23-525)
T2 construct: whole, on cells
T2 sequence (looked up): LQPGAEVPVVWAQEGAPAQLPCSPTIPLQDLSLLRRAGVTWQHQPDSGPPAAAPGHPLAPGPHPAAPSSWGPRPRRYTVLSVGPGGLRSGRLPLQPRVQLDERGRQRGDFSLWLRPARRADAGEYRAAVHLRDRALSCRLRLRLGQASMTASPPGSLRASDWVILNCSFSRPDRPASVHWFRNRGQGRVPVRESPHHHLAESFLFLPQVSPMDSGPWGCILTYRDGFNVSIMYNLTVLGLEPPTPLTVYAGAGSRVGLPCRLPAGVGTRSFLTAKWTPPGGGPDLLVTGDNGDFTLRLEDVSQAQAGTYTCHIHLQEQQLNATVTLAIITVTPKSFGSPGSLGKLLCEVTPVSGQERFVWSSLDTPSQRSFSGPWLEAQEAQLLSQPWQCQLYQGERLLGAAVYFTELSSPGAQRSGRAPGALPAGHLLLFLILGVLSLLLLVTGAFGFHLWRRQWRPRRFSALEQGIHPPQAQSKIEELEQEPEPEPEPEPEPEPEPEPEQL


Key:
[1] = molecular target: T3, Human serum albumin (human, UniProt P02768); assay: SPR, Biacore T100
T3 construct: also called HSA; human albumin
T3 sequence (P02768 25-609 limits assumed): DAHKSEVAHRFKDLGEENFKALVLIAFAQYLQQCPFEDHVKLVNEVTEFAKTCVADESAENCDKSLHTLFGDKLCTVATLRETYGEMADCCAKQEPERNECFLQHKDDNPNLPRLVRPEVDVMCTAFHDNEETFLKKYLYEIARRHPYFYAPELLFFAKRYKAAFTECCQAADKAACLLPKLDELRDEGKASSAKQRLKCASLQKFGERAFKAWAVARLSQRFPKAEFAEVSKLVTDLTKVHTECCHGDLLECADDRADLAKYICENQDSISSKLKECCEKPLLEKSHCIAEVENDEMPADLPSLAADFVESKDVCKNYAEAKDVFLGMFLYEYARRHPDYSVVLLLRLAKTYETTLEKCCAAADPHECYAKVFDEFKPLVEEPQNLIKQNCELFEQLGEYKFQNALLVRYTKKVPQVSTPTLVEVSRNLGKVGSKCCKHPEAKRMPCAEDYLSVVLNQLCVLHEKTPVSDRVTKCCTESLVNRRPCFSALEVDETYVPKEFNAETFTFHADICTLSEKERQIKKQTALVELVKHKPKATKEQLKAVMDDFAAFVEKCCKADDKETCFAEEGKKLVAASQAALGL

[2] = molecular target: T4, Rhesus monkey serum albumin (rhesus monkey, UniProt Q28522 17-600); assay: SPR, Biacore T100
T4 construct: also called Rhesus serum albumin; rhesus monkey albumin
T4 sequence (Q28522 17-600 limits assumed): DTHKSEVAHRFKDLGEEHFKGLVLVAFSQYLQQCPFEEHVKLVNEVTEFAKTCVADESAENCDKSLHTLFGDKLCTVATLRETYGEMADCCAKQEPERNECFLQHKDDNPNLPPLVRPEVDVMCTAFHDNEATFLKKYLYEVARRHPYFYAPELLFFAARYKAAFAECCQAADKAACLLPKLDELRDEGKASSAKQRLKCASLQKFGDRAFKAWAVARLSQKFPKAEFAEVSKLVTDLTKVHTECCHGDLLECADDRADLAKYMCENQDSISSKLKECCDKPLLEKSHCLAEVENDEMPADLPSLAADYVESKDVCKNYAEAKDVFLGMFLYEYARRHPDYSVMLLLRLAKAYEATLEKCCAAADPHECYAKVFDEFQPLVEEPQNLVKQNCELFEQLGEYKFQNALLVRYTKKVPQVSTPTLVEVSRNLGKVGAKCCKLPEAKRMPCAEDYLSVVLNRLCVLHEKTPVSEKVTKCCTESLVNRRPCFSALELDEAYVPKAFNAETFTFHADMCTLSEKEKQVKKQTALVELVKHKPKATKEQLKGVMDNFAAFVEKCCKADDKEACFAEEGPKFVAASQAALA

[3] = molecular target: T5, Mouse serum albumin (mouse, UniProt P07724 25-608); assay: SPR, Biacore T100
T5 construct: also called Mouse plasma albumin; mouse albumin

[4] = molecular target: T1, human CTLA-4 expressed on cell surface …; assay: flow cytometry (bFACS) on CHO-K1 cells overexpressing human CTLA4; Nanobody detected via ALB11-binding mAb ABH0074; MedianFI (PE)
From the text: Binding of F023700918 (filled squares), F023700925 (filled triangles), F023700912 (filled circles) and an irrelavant Nb (diamonds) to hCTLA4-overexpressing CHO-K1 cells was studied by flow cytometry. Nanobodies were detected via the ALB11-binding mAB ABH0074. The flow cytometry data generated in this experiment are in FIG. 8.

[5] = molecular target: T6, human CD8alpha on L cells (huCD8alpha+ L cells) (human, UniProt P01732 22-235); assay: flow cytometry (bFACS) on L cells expressing huCD8alpha; MedianFI (PE)
T6 construct: whole, on cells
T6 sequence (P01732 22-235): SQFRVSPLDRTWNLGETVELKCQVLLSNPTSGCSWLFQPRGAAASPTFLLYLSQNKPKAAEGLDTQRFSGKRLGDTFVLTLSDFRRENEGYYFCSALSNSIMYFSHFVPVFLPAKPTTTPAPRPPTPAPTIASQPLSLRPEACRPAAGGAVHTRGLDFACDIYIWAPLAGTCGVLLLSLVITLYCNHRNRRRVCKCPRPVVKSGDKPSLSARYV
Description: (§1) Specificity assessment F023700925 predicted selective binding to CTLA-4 and PD-1. Specificity assessment against BTLA, CD8, CTLA4, LAG3, and CD28 was performed on overexpressing cells using flow cytometry, whereas ICOS binding was evaluated in ELISA as a recombinant protein (hICOS-hFc). Expression of BTLA, CD8, PD1, CTLA4, LAG3, CD28 was assessed via directly-labelled target-specific Abs. Anti-hICOS and anti-hCTLA4/anti-hPD1 positive controls were all positive. […] No binding to BTLA, CD8, LAG3, CD28 could be observed for F023700925, whereas potent binding of F023700925 was observed on PD-1+ or CTLA-4+ CHO-K1 cells. vThe flow cytometry data generated in this experiment are in FIG. 11 (A-H).

[6] = molecular target: T7, human PD-1 expressed on cell surface (hPD1-overexpressing CHO-K1 cells) (human, UniProt Q15116 25-288); assay: flow cytometry (bFACS) on CHO-K1 cells overexpressing human PD1; Nanobody detected via ALB11-binding mAb ABH0074; MeanFI (PE)
T7 construct: The construct expressed in the cells is not described further; also called huPD-1+ CHO-K1 cells; PD-1+ CHO-K1 cells
T7 sequence (Q15116 25-288 limits assumed): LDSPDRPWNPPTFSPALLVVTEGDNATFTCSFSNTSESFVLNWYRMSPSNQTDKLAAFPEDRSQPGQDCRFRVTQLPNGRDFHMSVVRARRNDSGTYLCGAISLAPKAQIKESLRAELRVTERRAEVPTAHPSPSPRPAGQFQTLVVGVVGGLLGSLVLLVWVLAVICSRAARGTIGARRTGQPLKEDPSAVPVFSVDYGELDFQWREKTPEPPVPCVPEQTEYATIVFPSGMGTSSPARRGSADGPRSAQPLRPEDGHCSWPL
From the text: Binding of batches of F023700925 (filled squares) and F023700912 (filled circles) and irrelavant Nb IRR00051 (filled triangles) to hPD1-overexpressing CHO-K1 cells was studied by flow cytometry. Nbs were detected via the ALB11-binding mAB ABH0074. The flow cytometry data generated in this experiment are in FIG. 9.

[7] = molecular target: T1, human CTLA-4 expressed on cell surface …; assay: flow cytometry (bFACS) on CHO-K1 huCTLA4 cells; MedianFI (PE)
Description: as §1

[8] = molecular target: T8, human BTLA on CHO-K1 cells (huBTLA+ CHO-K1 cells) (human, UniProt Q7Z6A9 31-289); assay: flow cytometry (bFACS) on CHO-K1 huBTLA cells; MedianFI (PE)
T8 construct: whole, on cells
Description: as §1

[9] = molecular target: T2, human LAG3 on CHO-K1 cells (huLag-3+ …); assay: flow cytometry (bFACS) on CHO-K1 huLAG3 cells; MedianFI (PE)
Description: as §1

[10] = molecular target: T9, human CD28 on L cells (huCD28+ L cells) (human, UniProt P10747 19-220); assay: flow cytometry (bFACS) on L cells expressing huCD28; MedianFI (PE)
T9 construct: whole, on cells
T9 sequence (P10747 19-220): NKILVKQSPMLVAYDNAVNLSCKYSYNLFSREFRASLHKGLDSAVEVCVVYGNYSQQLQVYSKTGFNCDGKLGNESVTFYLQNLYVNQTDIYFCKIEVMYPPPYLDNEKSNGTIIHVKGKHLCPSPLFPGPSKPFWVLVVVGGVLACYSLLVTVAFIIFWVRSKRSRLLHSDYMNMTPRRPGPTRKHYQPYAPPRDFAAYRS
Description: as §1

| Kd [1] [nM] | koff [1] [s⁻¹] | kon [1] [M⁻¹ s⁻¹] | Kd [2] [nM] | koff [2] [s⁻¹] | kon [2] [M⁻¹ s⁻¹] | Kd [3] [nM] | koff [3] [s⁻¹] | kon [3] [M⁻¹ s⁻¹] | EC50 (read off the curve) [4] [nM] | binding result [5] | EC50 (read off the curve) [6] [nM] | EC50 (read off the curve) [7] [nM] | binding result [8] | binding result [9] | binding result [10] | Binder |
| --- | --- | --- | --- | --- | --- | --- | --- | --- | --- | --- | --- | --- | --- | --- | --- | --- |
| 220 | 0.0076 | 34000 | 240 | 0.0081 | 33000 | 3100 | 0.15 | 48000 | ~0.3 | no binding (tested: 10^-6 M) | ~1 | ~0.2 | no binding (tested: 10^-6 M) | no binding (tested: 10^-6 M) | no binding (tested: 10^-6 M) | F023700925 (VHH, also called pentavalent […] Nanobody) DVQLVESGGGVVQPGGSLRLSCAASGSIASIHAMGWFRQAPGKEREFVAVITWSGGITYYADSVKGRFTISRDNSKNTVYLQMNSLRPEDTALYYCAGDKHQSSWYDYWGQGTLVTVSSGGGGSGGGGSGGGGSGGGGSGGGGSGGGGSGGGGSEVQLVESGGGVVQPGGSLRLSCAASGSIASIHAMGWFRQAPGKEREFVAVITWSGGITYYADSVKGRFTISRDNSKNTVYLQMNSLRPEDTALYYCAGDKHQSSWYDYWGQGTLVTVSSGGGGSGGGGSGGGGSGGGGSGGGGSGGGGSGGGGSEVQLVESGGGVVQPGGSLRLSCAASGGTFSFYGMGWFRQAPGKEREFVADIRTSAGRTYYADSVKGRFTISRDNSKNTVYLQMNSLRPEDTALYYCAAEPSGISGWDYWGQGTLVTVSSGGGGSGGGGSGGGGSGGGGSGGGGSGGGGSGGGGSEVQLVESGGGVVQPGGSLRLSCAASGGTFSFYGMGWFRQAPGKEREFVADIRTSAGRTYYADSVKGRFTISRDNSKNTVYLQMNSLRPEDTALYYCAAEPSGISGWDYWGQGTLVTVSSGGGGSGGGGSGGGGSGGGGSGGGGSGGGGSGGGGS[about 120 residues left out] |
| – | – | – | – | – | – | – | – | – | ~2 | – | – | – | – | – | – | F023700918 (VHH) DVQLVESGGGVVQPGGSLRLSCAASGSIASIHAMGWFRQAPGKEREFVAVITWSGGITYYADSVKGRFTISRDNSKNTVYLQMNSLRPEDTALYYCAGDKHQSSWYDYWGQGTLVTVSSGGGGSGGGGSGGGGSGGGGSGGGGSGGGGSGGGGSEVQLVESGGGVVQPGGSLRLSCAASGSIASIHAMGWFRQAPGKEREFVAVITWSGGITYYADSVKGRFTISRDNSKNTVYLQMNSLRPEDTALYYCAGDKHQSSWYDYWGQGTLVTVSSGGGGSGGGGSGGGGSGGGGSGGGGSGGGGSGGGGSEVQLVESGGGVVQPGGSLRLSCAASGGTFSFYGMGWFRQAPGKEREFVADIRTSAGRTYYADSVKGRFTISRDNSKNTVYLQMNSLRPEDTALYYCAAEPSGISGWDYWGQGTLVTVSSGGGGSGGGGSGGGGSGGGGSGGGGSGGGGSGGGGS[about 120 residues left out] |
| 93 | 0.0088 | 94000 | 93 | 0.0089 | 95000 | 1500 | 0.18 | 120000 | ~0.2 | no binding (tested: 10^-6 M) | – | ~0.1 | no binding (tested: 10^-6 M) | no binding (tested: 10^-6 M) | no binding (tested: 10^-6 M) | F023700912, 11F01 (E1D,L11V,A14P,Q45R,A74S,K83R,V89L,M96P,Q108L)-35GS-11F01 (L11V,A14P,Q45R,A74S,K83R,V89L,M96P,Q108L)-35GS-ALB11002-A (VHH, also called CTLA4 Nanobody F023700912; anti-hCTLA4 Nanobody) DVQLVESGGGVVQPGGSLRLSCAASGGTFSFYGMGWFRQAPGKEREFVADIRTSAGRTYYADSVKGRFTISRDNSKNTVYLQMNSLRPEDTALYYCAAEPSGISGWDYWGQGTLVTVSSGGGGSGGGGSGGGGSGGGGSGGGGSGGGGSGGGGSEVQLVESGGGVVQPGGSLRLSCAASGGTFSFYGMGWFRQAPGKEREFVADIRTSAGRTYYADSVKGRFTISRDNSKNTVYLQMNSLRPEDTALYYCAAEPSGISGWDYWGQGTLVTVSSGGGGSGGGGSGGGGSGGGGSGGGGSGGGGSGGGGS[about 120 residues left out] |

Reference: patent publication US20170137520A1 (Merck Sharp & Dohme, published 2017)
